Measurements reported in PubChem BioAssay AID1745853 (National Center for Advancing Translational Sciences (NCATS), 2022).
The list shows a part of the results. Further columns of the screen follow, without active or inactive calls.

What was measured:
Assay in all cases: Primary Screen for Target Class Profiling of Small Molecule Inhibitors of Methyltransferases
[1] = biological target: Glycine N-methyltransferase (Homo sapiens) (UniProt Q14749); details: purified enzyme, MTase-Glo SAH luminescence; measured here: GNMT inhibition; at 40 µM; stronger effect = lower value
Summary of the method: (§1)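 Each enzyme was reacted with SAM and its substrate, with compounds tested once at 40 uM; SAH formed was read by MTase-Glo luminescence.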

[2] = biological target: Guanidinoacetate N-methyltransferase (Homo sapiens) (UniProt Q14353); details: purified enzyme, MTase-Glo SAH luminescence; measured here: GAMT inhibition; at 40 µM; stronger effect = lower value
Summary of the method: as §1

[3] = biological target: Histamine N-methyltransferase (Homo sapiens) (UniProt P50135); details: purified enzyme, MTase-Glo SAH luminescence; measured here: HNMT inhibition; at 40 µM; stronger effect = lower value
Summary of the method: as §1

[4] = biological target: Nicotinamide N-methyltransferase (Homo sapiens) (UniProt P40261); details: purified enzyme, MTase-Glo SAH luminescence; measured here: NNMT inhibition; at 40 µM; stronger effect = lower value
Summary of the method: as §1

[5] = biological target: Phenylethanolamine N-methyltransferase (Homo sapiens) (UniProt P11086); details: purified enzyme, MTase-Glo SAH luminescence; measured here: PNMT inhibition; at 40 µM; stronger effect = lower value
Summary of the method: as §1
% is scaled to controls: 0 for no effect and ±100 for the full control effect.

| Structure (SMILES) | activity change, negative = inhibition [1] [%] | activity change, negative = inhibition [2] [%] | activity change, negative = inhibition [3] [%] | activity change, negative = inhibition [4] [%] | activity change, negative = inhibition [5] [%] |
| --- | --- | --- | --- | --- | --- |
| CCCn1c(=O)c2cc(F)ccc2n2c(SCC(=O)N3CCN(c4ccccc4F)CC3)nnc12 | -3.83 | 2.3 | 6.64 | -13 | 0.733 |
| C=C1CCC2[C@](C)(CCC[C@]2(C)C(=O)O)[C@H]1CC/C(C)=C/C(=O)OC (some centres undefined) | -0.716 | 1.27 | 10.3 | -16.1 | -2.66 |
| CC(=C/C(=O)O)/C=C/[C@]1(O)[C@@]2(C)CO[C@]1(C)C[C@H](O[C@@H]1O[C@H](CO)[C@@H](O)[C@H](O)[C@H]1O)C2 | 0.133 | -3 | 5.33 | -13.6 | 4.39 |
| CCOC(=O)c1cc2n(n1)CC(C)(C(=O)NC1CCCCC1)N(Cc1ccc(Cl)cc1)C2=O (centres undefined) | -0.945 | 0.923 | -4.1 | -9.65 | -3.44 |
| C[C@H]1CC(=O)C2=C(C1)C(O)C(O)[C@@]1(O)[C@H]2C(=O)c2cccc(O)c2[C@@H]1O (some centres undefined) | -1.74 | -3.13 | 9.19 | -14.5 | -8.44 |
| CC/C=C(\C(=O)N[C@@H]1C(=O)N2C(C(=O)OCOC(=O)C(C)(C)C)=C(COC(N)=O)CS[C@H]12)c1csc(N)n1 | -8.05 |  | -1.15 |  |  |
| NC(=O)c1cnc(-c2ccc(C3(N)CCC3)cc2)c(-c2ccccc2)c1 | -18.7 | 6.8 | -39.7 | -61.1 | -2.81 |
| O=C(NCCc1ccc(F)cc1)c1cc(CN2CCOCC2)on1 | -3.9 | -4.64 | -0.469 | -6.6 | -29.6 |
| Cc1cccc(C2CN(C)CCc3c2cc(O)c(O)c3Cl)c1 (centres undefined) | -21.8 | 12.5 | -42.5 | -3.91 | 4.23 |
| C=CCn1c(=O)c2ccc(C(=O)NC(C)C)cc2n2c(=O)n(CC(N)=O)nc12 | 9.4 | 2.35 | 12.5 | 6.51 | 6.95 |
| CC(C)CCn1c(=O)c2ccc(C(=O)NCC(C)C)cc2n2c(=O)n(Cc3ccc(F)cc3Cl)nc12 | 6.71 | 0.208 | 9.14 | 3.57 | 3.25 |
| Cc1cc(C)cc(NC(=O)CSc2nnc3n(CC(C)C)c(=O)c4ccccc4n23)c1 | 1.96 | 0.56 | 7.98 | -6.33 | 4.13 |
| COc1ccc(OC)c2c1cc1n2CC(C)(C(=O)NC2CCCCCC2)N(Cc2cccnc2)C1=O (centres undefined) | 2.01 | 2.04 | 8.55 | -6.58 | 4.82 |
| Cc1nc(N=Nc2cc(S(=O)(=O)O)c3cc([N+](=O)[O-])cc(S(=O)(=O)O)c3c2)c(COP(=O)(O)O)c(C=O)c1O | -26.5 | 3.33 | -1.5 | -4.57 | 4.56 |
| CN1CCN(c2ccc(Nc3cc(-c4cccc(-n5ccc6cc(C7CC7)cc(F)c6c5=O)c4CO)cn(C)c3=O)nc2)CC1 | -10.6 | -8.43 | -36.1 | -22.1 | -8.56 |
| Cc1cnc(CC2CCCN(C(=O)N(C)C)C2)n1C(C)C (centres undefined) | 1.55 | -5.65 | -11.1 | 2.67 | 0.786 |
| COCCN1C(=O)[C@H]2CN(Cc3ccc(C)s3)C[C@H]2C1=O | 0.907 | -4.01 | 1.86 | -1.3 | -10.9 |
| CSc1ccc(CCNC(=O)c2cc3n(n2)CC(C)(C(=O)NC2CCCC2)N(C)C3=O)cc1 (centres undefined) | -0.713 | 0 | 4.79 | 3.01 | 2.13 |
| COc1ccc(-c2cc3n(n2)CC(C)(C(=O)NCc2ccccc2)N(Cc2ccc4c(c2)OCO4)C3=O)cc1 (centres undefined) | 4.74 | 1.59 | 3.16 | 7.42 | 1.47 |
| COc1cc(/C=C/CO)ccc1O[C@@H]1O[C@H](CO)[C@@H](O)[C@H](O)[C@H]1O | 6.32 | 6.43 | 10 | -5.21 | 4.3 |

| Structure (SMILES) | activity change, negative = inhibition [1] [%] | activity change, negative = inhibition [2] [%] | activity change, negative = inhibition [3] [%] | activity change, negative = inhibition [4] [%] | activity change, negative = inhibition [5] [%] |
| --- | --- | --- | --- | --- | --- |
| COc1ccc(N(C(=O)c2ccc(C)cc2)S(=O)(=O)c2ccc3c(c2)n(C)c(=O)n3C)cc1 | -5.77 | 7.25 | -6.04 | -8.51 | -2.83 |
| c1ccc(-c2noc(CC3CCOC4(CCN(Cc5cccnc5)CC4)C3)n2)cc1 (centres undefined) | -3.27 | 1.31 | -0.127 | -9.92 | -1.44 |
| CN(CC1COCCO1)S(=O)(=O)Nc1ccc2ccc3ncc(-c4cnn(C)c4)cc3c(=O)c2c1 (centres undefined) | -15 |  | -3.84 |  |  |
| CCC(C)NC(=O)c1ccc2c(=O)n(C3CC3)c3nn(CC(=O)NCc4ccccc4)c(=O)n3c2c1 (centres undefined) | -3.04 | 0 | 0.694 | -8.25 | -17.5 |
| COc1ccc(OC)c(NS(=O)(=O)c2ccc3c(c2)NC(=O)C(C)C(=O)N3)c1 (centres undefined) | -1.79 | 2.17 | -2.21 | 4.6 | -5.76 |
| O=S(=O)(NC1CCC(c2cc(F)ccc2F)(S(=O)(=O)c2ccc(Cl)cc2)CC1)C(F)(F)F (centres undefined) | 0.437 | 1.17 | 9.21 | -28.6 | -13.8 |
| CNC(=O)[C@@H]1C[C@@H](O)CN1C1CCN(C(=O)CCc2nc3ccccc3s2)CC1 | -4.39 | 0.25 | -2.09 | -3.43 | -7.48 |
| CC(C)CNC(=O)c1ccc2c(=O)n(C(C)C)c3nn(Cc4ccc(Cl)cc4)c(=O)n3c2c1 | -1.38 | 0.588 | 6.52 | 1.81 | 3.33 |
| CC(C)c1cnn2c(NCc3ccccc3)cc(N[C@@H](CO)[C@H](O)CO)nc12 | 3.37 | 5.85 | 10.9 | -9.25 | 8.01 |
| NS(=O)(=O)c1ccc(NC(=O)Nc2ccc(F)cc2)cc1 | -2.21 | 4.4 | 10.3 | -10.3 | 2.58 |
| COCC(=O)NC1(Cc2cc(-c3ccc(OC)cc3)on2)COC1 | -6.5 | -4.61 | -1.62 | -6.48 | 9.36 |
| CC(C)CCNC(=O)C1c2c(n(C)c3ccccc23)SCC(=O)N1Cc1ccc(F)cc1 (centres undefined) | 7.86 | 4.3 | 3.5 | -5.77 | 6.32 |
| C=CCn1c(=O)c2ccc(C(=O)NC(C)C)cc2n2c(=O)n(CC(=O)Nc3cc(C)cc(C)c3)nc12 | 4.64 | 0.404 | 5.57 | 6.26 | 3.85 |
| CC1(C(=O)NC2CCCCC2)Cn2c(nc3ccccc32)C(=O)N1Cc1ccccc1Cl (centres undefined) | 3.55 | 4.67 | 6.92 | -2.69 | 1.8 |
| CC(=O)OC1C(O)CC2(C)C(CCC(C)C23Cc2c(O)cc(CO)c(C=O)c2O3)C1(C)C (centres undefined) | -2.52 | 3.76 | 8.65 | -14.4 | -8.75 |
| COC(=O)CCNC(=O)N1Cc2c(sc3c2CCCC3)-n2cccc2C1c1cccc(C)c1 (centres undefined) | -3 | 0 | 0.723 | -6.79 | -3.32 |
| CNC(=O)[C@@H]1CN(C(=O)Cn2nc(C(F)(F)F)cc2C)C[C@H]1CO | -1.6 | 2.25 | 1.48 | 4.13 | 15.5 |
| CCc1ccc(NC(=O)Cn2nc3n(c2=O)CCCC3)cc1 | 0.866 | -4.4 | 1.14 | -0.228 | 6.3 |
| CCC1(O)CC2CN(CCc3c([nH]c4ccccc34)[C@@](C(=O)OC)(c3cc4c(cc3OC)N(C=O)C3[C@]45CCN4CC=C[C@@](CC)([C@@H](OC(C)=O)[C@]3(O)C(=O)OC)[C@H]45)C2)C1 (some centres undefined) | -4.23 | 13.5 | 12.3 | -1.15 | 2.43 |
| Cc1ccc(CNC(=O)Cn2nc3n(C)c(=O)c4ccc(C(=O)NC5CCCCC5)cc4n3c2=O)cc1 | 0.358 | 4.84 | 3.39 | 2.27 | 1.34 |

| Structure (SMILES) | activity change, negative = inhibition [1] [%] | activity change, negative = inhibition [2] [%] | activity change, negative = inhibition [3] [%] | activity change, negative = inhibition [4] [%] | activity change, negative = inhibition [5] [%] |
| --- | --- | --- | --- | --- | --- |
| Cc1ccc(C)c(Cn2nc3n(Cc4ccccc4)c(=O)c4ccc(C(=O)NC(C)C)cc4n3c2=O)c1 | 5.41 | 4.03 | 5.17 | 1.03 | 2.01 |
| O=C(CC1COCCN1)N1CCC2(CCC(=O)N(CCc3ccccc3)C2)CC1 (centres undefined) | -3.67 | -1.32 | -2.71 | -2.27 | -5.21 |
| CSc1nccc(N2CCC(c3nccn3Cc3cccnc3)CC2)n1 | -3.71 | -0.976 | -14.2 | -7.65 | 1.16 |
| CCCCOc1cc2oc(=O)cc(-c3ccccc3)c2cc1Cl | -0.627 | -0.476 | -0.488 | -6.23 | -4.46 |
| CC(C)CN1C(=O)N(Cc2ccccn2)C(=O)C12CCN(Cc1ccc3c(c1)CCO3)CC2 | -4.47 | 0.575 | 0.859 | -5.88 | 1.94 |
| Cc1ccc(NC(=O)Cn2nc3n(C(C)C)c(=O)c4ccc(C(=O)NC5CCCC5)cc4n3c2=O)cc1 | 3.34 | 1.55 | 2.38 | -1.06 | -2.69 |
| Cc1cnc(CC2CCCN(S(=O)(=O)c3ccccc3)C2)n1CC1CC1 (centres undefined) | -3.6 | -1.89 | -18.4 | -29.3 | -18.5 |
| O=C(O)c1cc([N+](=O)[O-])ccc1NCCCc1ccccc1 | -19.3 | 6.07 | -1.97 | -7.63 | 5.44 |
| O=C(OCC(O)CO[C@@H]1O[C@H](C(=O)O)[C@@H](O)[C@H](O)[C@H]1O)c1ccccc1 (some centres undefined) | 4.56 | 6.11 | 8.97 | -5.08 | 0.998 |
| O=C(c1csc(-c2cccs2)n1)N1CCC2(CCCO2)CC1 | -15.2 | -16.4 | -13.7 | -18 | -17.6 |
| CCOc1ccc(CN2C(=O)c3cc(C(=O)OC)nn3CC2(C)C(=O)NC2CCCCCC2)cc1 (centres undefined) | -5.34 | -0.495 | -9.54 | -4.96 | -0.784 |
| COCC1(c2nc(C3CCOCC3)nn2-c2ccccc2)CCC1 | -3.41 | -9.87 | -3.38 | -15.4 | 7.59 |
| Cc1ccc(C)c(NC(=O)CN2C(=O)C(c3ccccc3)=NC23CCCC3)c1 | -0.833 | 2.31 | 0.578 | 1.94 | 0.65 |
| Cc1ccc(C)c(NC(=O)N2C[C@H](c3nc(-c4cccnc4)no3)[C@@H](C)C2)c1 | -8.14 | -9.45 | -4.51 | -32.9 | -11.2 |
| CCOCCCNC(=O)C1c2c(n(C)c3ccccc23)SCC(=O)N1c1ccc2c(c1)OCO2 (centres undefined) | 3.23 | 0.533 | 2.54 | -4.52 | -1.54 |
| CN(CC[C@H]1CN(C(=O)Cc2cccs2)CC[C@H]1CC(=O)O)c1ccccc1 | -10.4 | -2.64 | -1.79 | 0.151 | 1.8 |
| COc1ccc(CCNC(=O)Cn2ccc3cc(S(=O)(=O)N4CCCCC4)ccc32)c(OC)c1 | 0.298 | 1.25 | -13.1 | -10.7 | -4.76 |
| COc1ccc(CC(=O)N2C[C@@H](C(=O)O)[C@H](c3ccccc3)C2)c(OC)c1 | -2.04 | -1.15 | 1.38 | -0.625 | 5 |
